From article PMC8245553, “Identification of natural product modulators of Merkel cell carcinoma cell growth and survival” (Scientific Reports, 2021) come the findings set out here.

The test system of assay [1] is VN-MCC and VP-MCC cell lines and HaCaT.
For assay [2] the test system is unchanged. Put plainly: cells. Conditions: Homo sapiens, read-out: average IC50.
Assay [3] has as its system HaCaT immortalized keratinocytes.
Where [4] appears, read: based on average IC50 for VP and VN cell lines.
[5] abbreviates: VP-MCC versus VN-MCC average IC50.
The mark [6] stands for this setting: VN-MCC, VP-MCC and HaCaT cell lines, CellTiterGlo, 3 days.

Like-named read-outs stand apart in the source and are kept apart here.

For `Cc1[nH]c2ccccc2c1CCNCc1ccc(/C=C/C(=O)NO)cc1` [Panobinostat], in assay [1] (setting [4]), the Selectivity result is recorded as “VP (selectivity for VP-MCC cells which was defined as having an average IC50 < 50% of the VN-MCC average IC50)”.

`CC(C)C[C@H](NC(=O)[C@H](Cc1ccccc1)NC(=O)c1cnccn1)B(O)O` [Bortezomib]: the concentration for half-maximal inhibition (IC50) in assay [2] was determined as 11 nM.

`Nc1nc(Cl)nc2c1ncn2[C@@H]1O[C@H](CO)[C@@H](O)[C@@H]1F` [Clofarabine]: the Selectivity entry in assay [1] (setting [4]) is “Non”.

Regarding `Oc1ccc(/C=N/NC(=S)Nc2cccnc2)nc1` [NSC185065], the “differential effect on cell viability across cell lines (in words)” value (from here on “differential effect”) in assay [1] was “similarly effective for VN-MCC and VP-MCC cell lines”.

On to `Cc1c(O)c(O)c2c(c1O)C(=O)C(Cl)=C(Cl)C2=O` [NSC369976], for which the “effect on HaCaT control cells” value in assay [3] (up to 10 µM) was “no effect”. The “VP-MCC selectivity based on average IC50 values” (from here on “VP-MCC selectivity based”) in assay [1] (setting [5]) is “> fivefold”.

With `S=C(S)N1CCCC1` [Pyrrolidinedithiocarbamate], the “differential effect” value in assay [1] (setting [6]) was “similarly effective for VN-MCC and VP-MCC cell lines”; in assay [1] (VN-MCC, VP-MCC and HaCaT cell lines, CellTiterGlo, 3 days, listed as PDTC) it was “equipotent against VP-MCC and VN-MCC cells”. Also, the Selectivity entry in assay [1] (setting [4]) was “Non”.

In the case of `CC1=CC(=O)c2c(O)cccc2C1=O` [Plumbagin], the “effect on HaCaT control cells” value in assay [3] (up to 10 µM) is “no effect”. Further, the “VP-MCC selectivity based” value in assay [1] (setting [5]) is recorded as “> fivefold”. The Selectivity entry in assay [1] (setting [4]) is listed as “VP (key: selectivity for VP-MCC cells which was defined as having an average IC50 < 50% of the VN-MCC average IC50)”.

On to `C/C=C(/C)C(=O)O[C@H]1C(C)=C2[C@H]([C@@H]1OC(=O)CCCCCCC)[C@@](C)(OC(C)=O)C[C@H](OC(=O)CCC)[C@@]1(O)[C@H]2OC(=O)[C@@]1(C)O` [Thapsigargin], for which the Selectivity entry in assay [1] (setting [4]) is given as “Non?^c”.

On to `O=Nc1ccc(O)c2ncccc12` [5-Nitroso-8-hydroxyquinoline], for which the “effect on HaCaT control cells” value in assay [3] (up to 10 µM) is “no effect”. Besides, in assay [1] (setting [5]), the “VP-MCC selectivity based” value is reported as “> fivefold”. The Selectivity result in assay [1] (setting [4]) is recorded as “VP (selectivity for VP-MCC cells which was defined as having an average IC50 < 50% of the VN-MCC average IC50)”.

With `Cc1cc(Nc2ncc3c(n2)N(C)C(=O)N(c2cc(NC(=O)c4cccc(C(F)(F)F)c4)ccc2C)C3)n(C)n1` [pluripotin, Pluripotin], in assay [1], the “differential effect” value is “preferentially affected VN-MCC and HaCaT cells with little effect on the viability of VP-MCC cells”.

Take `CC[C@](C)(O)C(=O)O[C@H]1C(=O)O[C@@H]2C[C@H]3C(C)=C[C@H](O)[C@@H](O)[C@]3(C)[C@H]3[C@]4(O)OC[C@]32[C@@H]1[C@@H](C)[C@H]4O` [Glaucarubin]: in assay [1] (setting [4]), the Selectivity result is “VP (key: selectivity for VP-MCC cells which was defined as having an average IC50 < 50% of the VN-MCC average IC50)”.

On to `CO[C@@]12[C@H](COC(N)=O)C3=C(C(=O)C(C)=C(N)C3=O)N1C[C@@H]1N[C@@H]12` [Mitomycin C], for which the Selectivity result in assay [1] (setting [4]) is “VP (selectivity for VP-MCC cells which was defined as having an average IC50 < 50% of the VN-MCC average IC50)”.

In the case of `Nc1nc(Cl)nc2c1ncn2[C@H]1C[C@H](O)[C@@H](CO)O1` [Cladribine], the “differential effect” value in assay [1] (setting [6]) is “similarly effective for VN-MCC and VP-MCC cell lines”; in assay [1] (VN-MCC, VP-MCC and HaCaT cell lines, CellTiterGlo, 3 days, listed as cladribine) it was “inactive against MCC26, but active against all of the other MCC lines”. In assay [1] (setting [4]), the Selectivity entry is “Non”.

Turning to `CCOC(C)C(C=NNC(N)=S)=NNC(N)=S` (stereo not drawn) [Gloxazone, 3-ethoxy-2-oxobutyraldehyde bis(thiosemicarbazone)], the “differential effect” value in assay [1] (setting [6]) is “similarly effective for VN-MCC and VP-MCC cell lines”. Further, in assay [1] (setting [4]), the Selectivity entry is listed as “Non”.

With `CCN(CC)C(=S)SSC(=S)N(CC)CC` [Disulfiram], the Selectivity entry in assay [1] (setting [4]) is recorded as “Non”.

Consider Furoxanobenzofuroxan, for which the “effect on HaCaT control cells” value in assay [3] is on record as “no effect”. Further, in assay [1], the Selectivity result was “VP (key: selectivity for VP-MCC cells which was defined as having an average IC50 < 50% of the VN-MCC average IC50)” and the “VP-MCC selectivity based” value is recorded as “> fivefold”.

Take `C[C@@H]1C[C@H](C)C[C@H](C)[C@@H](O)CC(=O)O[C@H]([C@@H]2CCC[C@H]2C(=O)O)C/C=C/C=C(/C#N)[C@H](O)[C@@H](C)C1` [Borrelidin]: in assay [1], the “differential effect” value is on record as “some specificity for VN-MCC cells”. In addition, in assay [1] (setting [4]), the Selectivity entry is given as “Uncertain^b”.

Regarding `CC1(C)CCC(c2ccc(Cl)cc2)=C(CN2CCN(c3ccc(C(=O)NS(=O)(=O)c4ccc(N[C@H](CCN5CCOCC5)CSc5ccccc5)c(S(=O)(=O)C(F)(F)F)c4)cc3)CC2)C1` [Navitoclax], the “differential effect” value in assay [1] (setting [6]) was “significantly higher potency against VP-MCC cell lines with minimal effects on VN-MCC cells and an intermediate potency against HaCaT cells”.

As to `COc1cc([C@@H]2c3cc4c(cc3[C@@H](O[C@@H]3O[C@@H]5CO[C@@H](C)O[C@H]5[C@H](O)[C@H]3O)[C@H]3COC(=O)[C@H]23)OCO4)cc(OC)c1O` [Etoposide], in assay [1] (setting [6]), the “differential effect” value is “potently reduced viability of MCC13, but not the other VN-MCC cells and was active against all of the VP-MCC cell lines”. The Selectivity result in assay [1] (setting [4]) is recorded as “VP (selectivity for VP-MCC cells which was defined as having an average IC50 < 50% of the VN-MCC average IC50)”.

The term IC50 denotes the concentration that gives 50% inhibition.
